Experimental data: PubChem BioAssay AID1645887 (National Center for Advancing Translational Sciences (NCATS), 2021)
Several values for one entry are separate records, joined by “and”; a condition that tells them apart may be missing. Identical values can stand only once. The campaign covered roughly 16,000 compounds. About 40 (0.2%) were called active. About 1% were inconclusive and are not listed. Calls come from the whole dose curve; as a rule, active = well fitted activation curve with a large enough effect; inconclusive = small, poorly fitted or top-dose-only effect, or another doubt; inactive = no such curve, though single readings can be large or run the other way. The list shows a part of the results.

Target: Rap guanine nucleotide exchange factor 4 (Homo sapiens) (UniProt Q8WZA2)
Chain of UniProt Q8WZA2 (Q8WZA2 whole entry, looked up): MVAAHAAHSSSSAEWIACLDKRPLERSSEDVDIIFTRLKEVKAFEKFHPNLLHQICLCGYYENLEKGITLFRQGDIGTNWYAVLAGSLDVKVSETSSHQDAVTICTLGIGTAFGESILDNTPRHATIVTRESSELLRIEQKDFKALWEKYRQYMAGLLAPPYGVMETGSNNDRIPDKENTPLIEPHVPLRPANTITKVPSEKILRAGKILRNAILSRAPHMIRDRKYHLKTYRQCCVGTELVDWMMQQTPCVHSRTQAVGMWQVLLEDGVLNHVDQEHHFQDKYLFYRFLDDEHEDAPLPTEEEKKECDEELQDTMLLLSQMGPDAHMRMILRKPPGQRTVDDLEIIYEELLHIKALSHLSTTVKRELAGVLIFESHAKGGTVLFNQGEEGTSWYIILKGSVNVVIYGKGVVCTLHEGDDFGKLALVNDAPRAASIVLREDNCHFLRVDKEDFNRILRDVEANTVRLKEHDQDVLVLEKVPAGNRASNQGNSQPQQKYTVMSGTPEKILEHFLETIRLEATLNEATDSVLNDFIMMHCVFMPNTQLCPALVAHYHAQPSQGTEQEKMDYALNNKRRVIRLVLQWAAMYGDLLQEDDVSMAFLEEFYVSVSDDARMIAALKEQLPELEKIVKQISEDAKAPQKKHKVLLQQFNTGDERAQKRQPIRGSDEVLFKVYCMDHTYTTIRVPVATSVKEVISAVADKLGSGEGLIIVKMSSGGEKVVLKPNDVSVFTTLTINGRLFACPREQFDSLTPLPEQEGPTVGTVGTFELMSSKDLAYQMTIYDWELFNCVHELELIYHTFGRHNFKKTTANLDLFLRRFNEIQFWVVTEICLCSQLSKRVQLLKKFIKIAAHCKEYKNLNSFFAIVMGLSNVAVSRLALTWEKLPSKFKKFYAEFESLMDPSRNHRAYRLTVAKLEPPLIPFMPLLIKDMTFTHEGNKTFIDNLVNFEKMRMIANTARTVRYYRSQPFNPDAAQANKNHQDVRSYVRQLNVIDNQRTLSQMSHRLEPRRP
Assay: Validation qHTS for agonist of cAMP-regulated guanine nucleotide exchange factor 4 (EPAC2);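 note: exchange makes BODIPY-GDP fluorescence drop when released from Rap1B; series mostly up to about 150 µM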
Conditions: EPAC2 Rap1B BODIPY-GDP exchange, fluorescence; activation: active compounds read high
How it was run: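 Fluorescent exchange assay: 100 nM EPAC2 with 250 nM RAP1B-BODIPY-GDP and 50 uM GDP; compound added, 5 min at room temperature, then read (ex 480/em 540 nm) every 5 min for 30 min. Normalized to 6.5 mM cAMP agonist control.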
% is set by controls: 0 for no effect and ±100 for the full control effect.

activation, inactive:
CC(C)(C)NCC(O)COc1cccc2c1CC(O)C(O)C2 (stereo not given) 9.61%, COC(=O)[C@@H]1CCCN1Cc1ccc2c(c1)CN(Cc1cccn1-c1ccccn1)CCO2 -7.02%, c1cncc(CNc2ncnc3ccc(-c4cccnc4)cc23)c1 4.81%, C=C[C@]1(C)C[C@@H](OC(=O)CO)[C@]2(C)[C@H](C)CC[C@]3(CCC(=O)[C@H]32)[C@@H](C)[C@@H]1O 21.3%, Cc1noc(C)c1C(=O)N1CCC[C@@]2(CCN(Cc3ccc(C#N)cc3)C2)C1 -10%, Cc1cccc(C)c1NC(=O)C[N+](C)(C)C -36.6%, O=C(OCCN1CCCCC1)c1c[nH]c2ccccc12 -15.4% and 7.2%, O=C(c1cc(C(F)(F)F)cc(C(F)(F)F)c1)N1CCC2(CCN(Cc3nccs3)CC2)CC1 -8.68%, N[C@H](C(=O)O)c1cccc(O)c1 -2.02% and -6.96% and 7.11%, Nc1nc(Nc2ccccc2)nc2c1ncn2[C@@H]1O[C@H](CO)[C@@H](O)[C@H]1O -15.2%, OC1(c2cccnc2)CCN(Cc2ccc3c(c2)CN(Cc2cc(F)cc(F)c2)CCO3)CC1 -25%, COc1cc(CCNC(C)=O)c(C(=O)/C=C/c2cccc(OC)c2OC)cc1OC -38.7%, Cc1cc(O)cc(O)c1C(=O)O -4.11%, CO[C@H]1[C@H](NC(=O)c2cccs2)c2ccccc2C12CCN(Cc1cccn1-c1ccccn1)CC2 -17.5%, CCNC(=O)CCC(N)C(=O)O (stereo not given) 2.49%, Cn1c(=O)c(CCc2ccccc2)nc2cnc(OCc3ccccc3)nc21 -8.65%, COc1cc(=O)n2c(c1C(=O)N(C)Cc1nonc1C)CCN(Cc1ccc(C)cc1C)CC2 -7.14%, O=C(C[n+]1cc(Br)cc2ccccc21)c1ccc(Cl)cc1 -36.7%, CC[C@@H]1Cc2cc(O)ccc2C2=C1c1ccc(O)cc1C[C@H]2CC -17.5%, O=C(NCC1(N2CCCCC2)CCCC1)c1cnn(-c2nccc(-c3cccs3)n2)c1C1CC1 -3.25%, C[C@@H]1NC(=O)[C@@H](N)CNC(=O)[C@H](C2CCNC(N)=N2)NC(=O)/C(=C/NC(N)=O)NC(=O)[C@H](CNC(=O)C[C@@H](N)CCCN)NC1=O (stereo not given in full) 5.82% and -10%, CCn1cc(CN2CCOc3ccc(C(O)C4CCCCC4)cc3C2)c(C)n1 (stereo not given) -16.7%, CCCCCCCCCCOCC(O)CN (stereo not given) -18.7%, Cc1cc(=O)c(C(=O)NCCc2ccccn2)c2n1-c1ccccc1SC(c1cccs1)C2 (stereo not given) -23.1%, C=CC[C@H](c1ccc(F)cc1)N(CC(C)C)S(=O)(=O)C=C -21.9%, COc1ccc2cc3[n+](cc2c1OC)CCc1cc2c(cc1-3)OCO2 -23.8% and 15.2%, COCc1ccc(CN2CCOc3ccc(C4=Cc5ccccc5C4)cc3C2)o1 4.91%, CC[N+](C)(C)c1ccc(/C=C/c2ccnc3ccccc23)cc1 -39.5%, COCCn1c(=O)c(-c2cccc(C#N)c2)nc2cnc(Oc3ccc(OC)cc3)nc21 8.51%, Nc1ncnc2c1ncn2[C@H]1CC[C@@H](CO)O1 -5.98% and -12.5%, COc1ccc(CN2CCC(=O)N([C@H](CO)CC(C)C)CC2)cc1OC -5.37%, CCOC(=O)C[C@H]1c2ccccc2S(=O)(=O)N1c1cccc(OC)c1 -18.9%, CN(Cc1ccco1)c1cc(-c2ccoc2)ncn1 -0.172%, CC(CCC(=O)O)C1CCC2C3C(=O)CC4CC(=O)CC[C@@]4(C)C3CC(=O)[C@]12C (stereo not given in full) 6.73%, Cc1noc(C)c1-c1nc(N2CCNCC2)c2ccccc2n1 -2.85%, Cc1cnc(CNc2cc(-c3ccccc3CN(C)C)ncn2)cn1 -7.83%, COCC(=O)Nc1cc(C(=O)N2CCOc3ccccc3C2)cc2nc(-c3cccnc3)n(C)c12 -5.98%, Cn1cccc1C(=O)N1CCC2(CCCN(Cc3nccs3)C2)CC1 -4.75%, OCC(S)CS (stereo not given) 4.59%, Cc1noc(C)c1-c1cc(NCc2cccs2)ncn1 -18%, [Li+] -21.9%, CC(C)=CC1C(C(=O)O)C1(C)C (stereo not given) -0.801%, COC(=O)c1ccc(CN2CCOc3ccc(C(O)c4cccnc4)cc3C2)cc1 (stereo not given) -22.1%, O=c1c(CCc2ccccc2)nc2cncnc2n1Cc1ccc(F)cc1 -7.88%, CC(C)(C)C(=O)OCOC(=O)[C@@H]1N2C(=O)[C@@H](N=CN3CCCCCC3)[C@H]2SC1(C)C -3.03%, CCCCCCCCCCCCN1C/C(=C\C(=O)OCC)c2cc(C(F)(F)F)ccc2S1(=O)=O -38.4%, Cc1cnc(CNc2cc(-c3ccccc3Cl)ncn2)cn1 1.5%, CC(=O)NC[C@H]1CN(c2ccc(N3CCOCC3)c(F)c2)C(=O)O1 5.55%, NC(=O)c1cc[n+](CC2=C(C(=O)[O-])N3C(=O)[C@@H](NC(=O)Cc4cccs4)[C@H]3SC2)cc1 -2.53%, COc1cc(=O)n2c(c1C(=O)NCc1ccco1)CCN(Cc1ccc3ccccc3c1)CC2 0.571%, CN1CCN(c2ncc3nc(-c4ccccc4)c(=O)n(Cc4ccc(F)cc4)c3n2)CC1 -11.3%, Cc1nccn1CC1CCc2c(c3ccccc3n2C)C1=O (stereo not given) -9.2% and -2.03%, O=C1C(O)=C(O)C(=O)C(O)=C1O 21.6%, O[C@H](CCCN1CCN(c2ncc(F)cn2)CC1)c1ccc(F)cc1 -18.4%, c1ccc(CCc2nnc3n2CCN(Cc2ccc4ccccc4n2)CC3)cc1 -12%
